# Test results reported in PubChem BioAssay (Tox21).
# This list was built around the results that the source calls inconclusive (neither active nor inactive); the mix of calls is not that of the screen. For some assays here: Where the call is inconclusive, the potency comes from a doubtful curve fit. Calls of active or inactive are those of the source. Unless noted, calls come from the whole dose curve; as a rule, active = well fitted curve in the direction sought with a large enough effect in the repeat runs; inconclusive = weak or mixed curves; inactive = no such curve, though single readings can be large; an effect the other way counts as inactive or inconclusive.
# Tests used:
# [1] = biological target: Glucocorticoid receptor (Homo sapiens) (UniProt P04150); test: qHTS assay to identify small molecule antagonists of the glucocorticoid receptor (GR) signaling pathway (AID 720692; active = well fitted inhibition curve with a large enough effect in the signal ratio in the repeat runs, not every such curve was filed as active; inconclusive = weak or mixed curves, or effect the other way; inactive = no such curve, though single readings can be large or run the other way; the % refers to the signal ratio; note: % is set by controls: 0 for no effect and ±100 for the full control effect); details: GR-bla HeLa, beta-lactamase FRET ratio, dexamethasone-stimulated, 18 h; activity change, negative = inhibition: at 58.5 µM (top of the series) unless noted
# Chain of UniProt P04150 (P04150 whole entry, looked up): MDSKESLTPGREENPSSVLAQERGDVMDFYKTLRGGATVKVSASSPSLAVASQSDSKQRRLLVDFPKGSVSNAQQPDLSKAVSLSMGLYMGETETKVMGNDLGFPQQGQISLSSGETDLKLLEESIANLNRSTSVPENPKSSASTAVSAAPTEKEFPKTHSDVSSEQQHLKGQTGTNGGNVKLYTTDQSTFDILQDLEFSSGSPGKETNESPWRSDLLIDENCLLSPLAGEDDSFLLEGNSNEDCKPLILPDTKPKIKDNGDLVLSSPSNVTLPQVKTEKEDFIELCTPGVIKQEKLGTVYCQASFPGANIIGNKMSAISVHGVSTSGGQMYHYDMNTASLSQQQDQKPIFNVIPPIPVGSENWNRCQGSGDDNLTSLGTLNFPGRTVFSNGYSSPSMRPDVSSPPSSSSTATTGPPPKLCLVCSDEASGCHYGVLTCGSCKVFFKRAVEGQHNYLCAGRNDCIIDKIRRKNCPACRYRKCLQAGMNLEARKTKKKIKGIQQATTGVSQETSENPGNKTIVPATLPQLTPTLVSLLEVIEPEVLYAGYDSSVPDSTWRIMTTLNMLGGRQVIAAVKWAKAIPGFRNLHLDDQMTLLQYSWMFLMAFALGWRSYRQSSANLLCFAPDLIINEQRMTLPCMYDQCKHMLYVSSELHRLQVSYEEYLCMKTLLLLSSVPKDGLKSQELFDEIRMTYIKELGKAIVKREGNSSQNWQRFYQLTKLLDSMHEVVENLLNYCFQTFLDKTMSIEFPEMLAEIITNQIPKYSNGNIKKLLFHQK
# Method in brief: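 GR-bla HeLa cells (beta-lactamase reporter under glucocorticoid response element) were pre-plated 4 h at 37 C, treated with compounds plus 5 nM dexamethasone (final) for 18 h, then read by LiveBLAzer B/G FRET fluorescence after 2 h.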
# [2] = qHTS assay to identify small molecule antagonists of the thyroid receptor (TR) signaling pathway - cell viability counter screen (AID 743064); details: GH3.TRE-Luc viability, CellTiter-Fluor, 24 h; activity change, negative = cytotoxic: at 70.3 µM (top of the series) unless noted; note: % is set by controls: 0 for no effect and ±100 for the full control effect; nearly all actives have a fitted effect of over 50% in size
# Method in brief: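 CellTiter-Fluor readout, 30 min at 37 °C/5% CO2, following 23.5 h incubation of GH3.TRE-Luc cells with test compound and 1 nM T3 (final).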
# [3] = biological target: Estrogen receptor (Homo sapiens) (UniProt P03372); test: qHTS assay to identify small molecule agonists of the estrogen receptor alpha (ER-alpha) signaling pathway using the BG1 cell line (AID 743079); details: BG1Luc4E2 cells, ERE-luciferase agonist, 22 h; activation: at 70.3 µM (top of the series) unless noted; note: nearly all actives have a fitted effect of over 20% in size; note: potency is the fitted concentration of half-maximal effect
# Chain of UniProt P03372 (P03372 whole entry, looked up): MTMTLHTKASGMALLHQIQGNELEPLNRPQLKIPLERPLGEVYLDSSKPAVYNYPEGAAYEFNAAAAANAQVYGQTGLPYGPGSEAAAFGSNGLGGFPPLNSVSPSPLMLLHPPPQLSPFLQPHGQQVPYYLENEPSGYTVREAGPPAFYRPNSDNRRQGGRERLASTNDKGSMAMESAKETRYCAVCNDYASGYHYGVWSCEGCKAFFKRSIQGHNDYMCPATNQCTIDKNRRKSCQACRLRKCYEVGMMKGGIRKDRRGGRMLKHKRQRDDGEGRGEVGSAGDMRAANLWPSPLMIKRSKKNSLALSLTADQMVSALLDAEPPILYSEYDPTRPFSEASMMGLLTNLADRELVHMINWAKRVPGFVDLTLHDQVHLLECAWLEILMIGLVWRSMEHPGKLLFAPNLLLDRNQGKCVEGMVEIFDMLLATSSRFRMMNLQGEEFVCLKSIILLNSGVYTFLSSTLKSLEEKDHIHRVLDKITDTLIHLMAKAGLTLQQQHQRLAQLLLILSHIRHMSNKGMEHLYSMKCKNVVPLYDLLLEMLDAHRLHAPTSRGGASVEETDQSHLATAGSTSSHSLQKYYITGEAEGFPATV
# [4] = biological target: Peroxisome proliferator-activated receptor gamma (Homo sapiens) (UniProt P37231); test: qHTS assay to identify small molecule antagonists of the peroxisome proliferator-activated receptor gamma (PPARg) signaling pathway (AID 743191; calls by dose curve; note: % is set by controls: 0 for no effect and ±100 for the full control effect; nearly all actives have a fitted effect of over 30% in size); details: HEK293H PPARg-UAS-bla, beta-lactamase ratio, antagonist, 17 h; ratio activity, negative = inhibition: at 62.6 µM (top of the series) unless noted
# Chain of UniProt P37231 (P37231 whole entry, looked up): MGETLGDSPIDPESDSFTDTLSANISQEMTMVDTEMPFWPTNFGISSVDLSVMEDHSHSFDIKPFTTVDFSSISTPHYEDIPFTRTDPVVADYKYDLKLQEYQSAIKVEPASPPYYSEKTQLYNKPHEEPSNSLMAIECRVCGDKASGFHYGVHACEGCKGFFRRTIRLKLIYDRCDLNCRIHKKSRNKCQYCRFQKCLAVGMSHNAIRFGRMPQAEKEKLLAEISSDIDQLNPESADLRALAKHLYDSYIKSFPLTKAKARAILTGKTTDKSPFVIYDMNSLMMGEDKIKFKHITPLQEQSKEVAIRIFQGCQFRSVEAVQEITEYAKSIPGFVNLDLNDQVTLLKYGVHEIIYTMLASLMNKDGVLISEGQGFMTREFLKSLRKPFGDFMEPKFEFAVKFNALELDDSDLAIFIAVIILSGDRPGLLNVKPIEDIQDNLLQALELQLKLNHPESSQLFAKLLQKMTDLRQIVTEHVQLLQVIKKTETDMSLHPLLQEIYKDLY
# Method in brief: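 GeneBLAzer PPARg UAS-bla HEK293H cells, 5 h post-plating, exposed to compounds 17 h at 37C. LiveBLAzer B/G FRET substrate added for 1 h at room temperature; beta-lactamase reporter read by fluorescence intensity.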
# [5] = biological target: Vitamin D3 receptor (Homo sapiens) (UniProt P11473); test: qHTS assay to identify small molecule antagonists of the vitamin D receptor (VDR) signaling pathway (AID 743223; active = well fitted inhibition curve with a large enough effect in the signal ratio in the repeat runs, not every such curve was filed as active; inconclusive = weak or mixed curves, or effect the other way; inactive = no such curve, though single readings can be large or run the other way; the % refers to the signal ratio; note: potency is the fitted concentration of half-maximal effect); details: VDR-UAS-bla HEK293T, beta-lactamase FRET ratio, 16 h; activity change, negative = inhibition: at 61 µM (top of the series) unless noted
# Chain of UniProt P11473 (P11473 whole entry, looked up): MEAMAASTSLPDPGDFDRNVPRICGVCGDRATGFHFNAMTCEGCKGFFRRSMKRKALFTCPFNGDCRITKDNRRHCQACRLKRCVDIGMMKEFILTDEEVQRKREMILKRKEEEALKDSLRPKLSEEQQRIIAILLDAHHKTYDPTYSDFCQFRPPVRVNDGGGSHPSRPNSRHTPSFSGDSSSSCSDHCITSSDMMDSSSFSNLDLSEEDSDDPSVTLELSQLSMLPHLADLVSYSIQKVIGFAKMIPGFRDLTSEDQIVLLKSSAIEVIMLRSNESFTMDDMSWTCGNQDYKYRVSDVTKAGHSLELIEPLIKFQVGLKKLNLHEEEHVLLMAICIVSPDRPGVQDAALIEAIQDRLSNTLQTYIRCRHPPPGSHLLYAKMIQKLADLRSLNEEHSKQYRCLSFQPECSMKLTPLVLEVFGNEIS
# Method in brief: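 Inhibition of agonist-driven VDR signalling is scored in VDR-bla cells: 3 nM final 1alpha,25-dihydroxyvitamin D3 plus compound, 16 h at 37C, then beta-lactamase detection by FRET substrate fluorescence after 2 h.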
# [6] = qHTS assay to identify small molecule agonists of the retinoic acid receptor (RAR) signaling pathway (AID 1159553); details: C3RL4 RARE luciferase reporter, agonist, 6 h; activation: at 73.3 µM (top of the series) unless noted; note: potency is the fitted concentration of half-maximal effect
# Method in brief: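 C3RL4 cells carrying a RARE luciferase reporter were plated overnight at 37 C, then exposed to compounds in DMSO for 6 hr at 37 C and 5% CO2. Luminescence was read 30 min after luciferase reagent addition at room temperature.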
# [7] = biological target: Cytochrome P450 2D6 (Homo sapiens) (UniProt P10635); test: Cytochrome P450 Family 2 Subfamily D Member 6 (CYP2D6) small molecule antagonists: luciferase reporter qHTS assay (AID 1671196); note: nearly all actives have a fitted effect of over 50% in size; note: potency is the fitted concentration of half-maximal effect
# Chain of UniProt P10635 (P10635 whole entry, looked up): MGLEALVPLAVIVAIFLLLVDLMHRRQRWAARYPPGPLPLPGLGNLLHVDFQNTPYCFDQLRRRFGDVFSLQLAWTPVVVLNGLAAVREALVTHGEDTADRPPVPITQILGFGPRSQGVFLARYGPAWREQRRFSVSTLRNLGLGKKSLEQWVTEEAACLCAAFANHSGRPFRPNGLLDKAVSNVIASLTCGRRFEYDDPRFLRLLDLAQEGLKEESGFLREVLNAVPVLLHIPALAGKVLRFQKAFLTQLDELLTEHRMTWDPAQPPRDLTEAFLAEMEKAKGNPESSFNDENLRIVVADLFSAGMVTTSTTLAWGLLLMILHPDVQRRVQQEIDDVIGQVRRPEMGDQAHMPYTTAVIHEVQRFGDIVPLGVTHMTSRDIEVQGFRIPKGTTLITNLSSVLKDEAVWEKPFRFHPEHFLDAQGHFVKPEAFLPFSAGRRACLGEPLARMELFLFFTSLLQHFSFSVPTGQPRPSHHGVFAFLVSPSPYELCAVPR
# Method in brief: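 CYP2D6 enzyme–substrate mix was held with compound for 10 min at room temperature, then NADPH regeneration solution was added and the reaction ran 1 h at room temperature. Luciferin product was detected by luminescence after 20 min with detection reagent.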
# [8] = biological target: Cytochrome P450 2C9 (Homo sapiens) (UniProt P11712); test: Cytochrome P450 Family 2 Subfamily C Member 9 (CYP2C9) small molecule antagonists: luciferase reporter qHTS assay (AID 1671198); note: potency is the fitted concentration of half-maximal effect; nearly all actives have a fitted effect of over 50% in size
# Chain of UniProt P11712 (P11712 whole entry, looked up): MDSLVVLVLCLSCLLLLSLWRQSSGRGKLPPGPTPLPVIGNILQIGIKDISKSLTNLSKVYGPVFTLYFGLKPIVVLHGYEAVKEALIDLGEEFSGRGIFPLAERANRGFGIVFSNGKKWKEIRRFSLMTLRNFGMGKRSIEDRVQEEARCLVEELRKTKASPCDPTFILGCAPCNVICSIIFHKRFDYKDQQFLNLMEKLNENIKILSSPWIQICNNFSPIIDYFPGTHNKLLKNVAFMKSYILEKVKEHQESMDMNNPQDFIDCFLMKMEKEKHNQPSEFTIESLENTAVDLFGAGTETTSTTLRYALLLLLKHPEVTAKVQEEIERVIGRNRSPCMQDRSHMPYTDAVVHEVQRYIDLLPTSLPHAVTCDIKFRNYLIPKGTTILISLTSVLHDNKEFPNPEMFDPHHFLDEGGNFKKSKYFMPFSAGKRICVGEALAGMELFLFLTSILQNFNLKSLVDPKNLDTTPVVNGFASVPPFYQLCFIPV
# Method in brief: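 P450-Glo proluciferin substrate with CYP2C9 enzyme; 10 min RT preincubation, then NADPH regeneration 1 h at 37C; luciferin detection reagent 20 min RT, luminescence in relative luminescence units.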
# [9] = qHTS assay for small molecule disruptors of the mitochondrial membrane potential (AID 720635); details: HepG2 mitochondrial membrane potential, Mito-MPS dye ratio; ratio activity, negative = MMP loss: at 83.2 µM (top of the series) unless noted; note: potency is the fitted concentration of half-maximal effect
# Method in brief: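 HepG2 cells exposed to compound 1 hr at 37C, then Mito-MPS dye 30 min. Ratio read of aggregate (540/590 nm) versus monomer (490/535 nm) fluorescence.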
# [10] = qHTS assay for identifying genotoxic compounds that show differential cytotoxicity against isogenic chicken DT40 cell lines with known DNA damage response pathways - wild type cell line (AID 743012); details: DT40 wild type chicken cells viability, CellTiter-Glo, 40 h; activity change, negative = cytotoxicity: at 68.4 µM (top of the series) unless noted; note: nearly all actives have a fitted effect of over 60% in size; note: potency is the fitted concentration of half-maximal effect
# Method in brief: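 Parental DNA repair-proficient DT40 cells, 300 per well, were pre-incubated ~0.5 h at 37 C/5% CO2, pin-dosed with compounds in DMSO, then incubated 40 h. Viability was read as CellTiter-Glo luminescence after 30 min at room temperature.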
# [11] = qHTS assay for small molecule agonists of the antioxidant response element (ARE) signaling pathway (AID 743202; active = well fitted activation curve with a large enough effect in the signal ratio in the repeat runs, not every such curve was filed as active; inconclusive = weak or mixed curves, or effect the other way; inactive = no such curve, though single readings can be large or run the other way; the % refers to the signal ratio; note: % is set by controls: 0 for no effect and ±100 for the full control effect); details: HepG2 ARE-bla reporter, beta-lactamase FRET, 16 h; activation: at 73.3 µM (top of the series) unless noted
# Method in brief: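 Agonist mode reporter screen: HepG2 cells with ARE-controlled beta-lactamase are incubated with test compounds for 16 h at 37 C, and beta-lactamase activity is measured as fluorescence of cleaved B/G FRET substrate.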
# [12] = qHTS assay to identify small molecule antagonists of the sonic hedgehog signaling (Shh) pathway (AID 1259369; calls by dose curve; note: nearly all actives have a fitted effect of over 45% in size; note: potency is the fitted concentration of half-maximal effect)
# Method in brief: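 NIH/3T3-derived 3T3Gli1-Luc cells with stably integrated Gli1-Luc reporter were preincubated 4hr at 37 C, then given compounds in DMSO plus Shh conditioned medium and incubated 24hr. Firefly luciferase luminescence read after 30min reagent at room temperature.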
# [13] = qHTS assay for small molecule agonists of the p53 signaling pathway (AID 651631; calls by dose curve; note: nearly all actives have a fitted effect of over 15% in size; note: potency is the fitted concentration of half-maximal effect); details: HCT-116 p53RE-bla reporter, beta-lactamase FRET ratio, 16 h; activation: at 73.3 µM (top of the series) unless noted
# Method in brief: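 Beta-lactamase reporter activity under p53 response elements was quantified in HCT-116 cells by FRET fluorescence, following 16 h incubation with test compounds at 37 °C and 2 h substrate development at room temperature.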
# [14] = qHTS assay for identifying genotoxic compounds that show differential cytotoxicity against isogenic chicken DT40 cell lines with known DNA damage response pathways - Rev3 mutant cell line (AID 743014); details: chicken DT40 Rev3-/- viability, CellTiter-Glo, 40 h; activity, negative = cytotoxicity: at 68.4 µM (top of the series) unless noted; note: nearly all actives have a fitted effect of over 55% in size; note: potency is the fitted concentration of half-maximal effect
# [15] = biological target: Estrogen receptor beta (Homo sapiens) (UniProt Q92731); test: qHTS assay to identify small molecule antagonists of the estrogen receptor beta (ER-beta) signaling pathway (AID 1259378; active = well fitted inhibition curve with a large enough effect in the signal ratio in the repeat runs, not every such curve was filed as active; inconclusive = weak or mixed curves, or effect the other way; inactive = no such curve, though single readings can be large or run the other way; the % refers to the signal ratio; note: % is set by controls: 0 for no effect and ±100 for the full control effect); details: ER-beta-UAS-bla HEK293T, beta-lactamase FRET ratio, 16 h; activity, negative = inhibition: at 92.4 µM (top of the series) unless noted
# Chain of UniProt Q92731 (Q92731 whole entry, looked up): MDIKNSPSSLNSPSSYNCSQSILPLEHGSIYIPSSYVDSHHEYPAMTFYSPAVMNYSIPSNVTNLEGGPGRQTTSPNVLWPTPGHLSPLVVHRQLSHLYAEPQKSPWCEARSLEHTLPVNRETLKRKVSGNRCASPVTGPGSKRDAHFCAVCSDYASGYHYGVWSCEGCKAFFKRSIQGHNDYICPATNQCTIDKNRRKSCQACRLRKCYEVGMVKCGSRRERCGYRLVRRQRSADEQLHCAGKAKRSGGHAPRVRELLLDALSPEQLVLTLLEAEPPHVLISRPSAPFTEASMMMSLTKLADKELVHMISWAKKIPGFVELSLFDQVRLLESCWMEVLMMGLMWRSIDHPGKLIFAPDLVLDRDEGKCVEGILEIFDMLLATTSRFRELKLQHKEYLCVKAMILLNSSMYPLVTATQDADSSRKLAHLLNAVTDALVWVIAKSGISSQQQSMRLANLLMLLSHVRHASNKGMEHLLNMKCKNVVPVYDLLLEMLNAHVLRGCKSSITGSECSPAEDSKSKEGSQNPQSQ
# Method in brief: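 ER-beta-UAS-bla HEK293T cells in 2% charcoal-stripped FBS medium treated with compound plus 1nM final 17-beta-estradiol for 16 hr at 37C. Beta-lactamase reporter read by FRET substrate fluorescence after 2 hours at room temperature.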
# [16] = biological target: Progesterone receptor (Homo sapiens) (UniProt P06401); test: qHTS assay to identify small molecule antagonists of the progesterone receptor (PR) signaling pathway (AID 1346795; active = well fitted inhibition curve with a large enough effect in the signal ratio in the repeat runs, not every such curve was filed as active; inconclusive = weak or mixed curves; the % refers to the signal ratio; note: % is set by controls: 0 for no effect and ±100 for the full control effect); details: PR-UAS-bla HEK293T, beta-lactamase FRET ratio, 16 h; activity change, negative = inhibition: at 92.4 µM (top of the series) unless noted
# Method in brief: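 Stimulus R5020 at 1 nM final; cells HEK293T PR-UAS-bla; medium with 2% charcoal-stripped FBS; compound exposure 16 hr at 37C, 5% CO2; detection by FRET beta-lactamase substrate, 2 hr, room temperature.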
# [17] = qHTS assay to identify small molecule agonists of the progesterone receptor (PR) signaling pathway - cell viability counter screen (AID 1346799; calls by dose curve; note: potency is the fitted concentration of half-maximal effect; nearly all actives have a fitted effect of over 45% in size)
# Method in brief: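 Multiplexed viability read: CellTiter-Glo luminescence, 30 min RT, following LiveBLAzer FRET measurement on PR-UAS-bla HEK293T cells exposed to compounds 16 hr.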
# [18] = biological target: Cytochrome P450 1A2 (Homo sapiens) (UniProt P05177); test: Cytochrome P450 Family 1 Subfamily A Member 2 (CYP1A2) small molecule antagonists: luciferase reporter qHTS assay (AID 1671199); note: nearly all actives have a fitted effect of over 50% in size; note: potency is the fitted concentration of half-maximal effect
# Chain of UniProt P05177 (P05177 whole entry, looked up): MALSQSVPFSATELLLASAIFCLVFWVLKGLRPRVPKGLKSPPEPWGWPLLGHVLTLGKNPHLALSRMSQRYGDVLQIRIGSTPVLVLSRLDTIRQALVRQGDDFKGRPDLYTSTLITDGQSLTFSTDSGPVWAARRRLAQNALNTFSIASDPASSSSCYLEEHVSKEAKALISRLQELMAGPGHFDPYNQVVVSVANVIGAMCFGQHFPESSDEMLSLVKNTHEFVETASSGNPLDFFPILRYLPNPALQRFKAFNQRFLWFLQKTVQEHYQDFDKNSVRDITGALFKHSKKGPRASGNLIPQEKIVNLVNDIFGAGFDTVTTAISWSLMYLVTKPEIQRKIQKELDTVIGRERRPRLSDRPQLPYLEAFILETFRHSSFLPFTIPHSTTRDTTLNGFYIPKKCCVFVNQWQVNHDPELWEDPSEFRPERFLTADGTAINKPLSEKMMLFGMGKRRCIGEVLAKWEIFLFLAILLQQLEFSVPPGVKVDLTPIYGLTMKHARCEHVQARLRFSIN
# Method in brief: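 Human CYP1A2 activity measured with a P450-Glo proluciferin substrate; compounds in DMSO preincubated 10 min at room temperature with enzyme-substrate mix, then NADPH regeneration system added for 1 h. Luciferin detection reagent, 20 min, luminescence read.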
# [19] = biological target: Cytochrome P450 2C19 (Homo sapiens) (UniProt P33261); test: Cytochrome P450 Family 2 Subfamily C Member 19 (CYP2C19) small molecule antagonists: luciferase reporter qHTS assay (AID 1671197); note: potency is the fitted concentration of half-maximal effect; nearly all actives have a fitted effect of over 65% in size
# Chain of UniProt P33261 (P33261 whole entry, looked up): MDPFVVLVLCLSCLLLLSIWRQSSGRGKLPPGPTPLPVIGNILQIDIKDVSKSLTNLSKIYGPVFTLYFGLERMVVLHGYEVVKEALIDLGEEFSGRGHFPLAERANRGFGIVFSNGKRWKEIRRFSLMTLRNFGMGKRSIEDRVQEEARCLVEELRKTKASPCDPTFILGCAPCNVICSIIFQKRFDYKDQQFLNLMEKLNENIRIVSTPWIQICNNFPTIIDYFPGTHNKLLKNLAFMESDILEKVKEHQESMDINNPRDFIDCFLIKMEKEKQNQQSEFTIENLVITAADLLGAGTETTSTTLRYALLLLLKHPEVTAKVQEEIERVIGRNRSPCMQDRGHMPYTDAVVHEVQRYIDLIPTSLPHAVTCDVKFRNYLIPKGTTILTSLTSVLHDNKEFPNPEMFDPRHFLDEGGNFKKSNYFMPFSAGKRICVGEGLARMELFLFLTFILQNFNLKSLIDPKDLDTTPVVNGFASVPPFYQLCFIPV
# Method in brief: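 Quantitative high-throughput screen of the Tox21 library using CYP2C19 with proluciferin substrate. Reaction: NADPH regeneration, 37C, 1 h, after 10 min compound preincubation at room temperature. Readout: luminescence.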
# Tags give direction and shape of the fitted curve or compound fluorescence and quenching.
structure (smiles),measurement,setting,value
CC(C)(C)c1ccc(N)cc1,"activity change, negative = inhibition",[1],inconclusive: 6.79%
same,Potency,[2],inactive
same,Potency,[3],"inconclusive: 15.4 µM [activator, partial curve, poor fit]"
same,Potency,[4],inactive
same,"activity change, negative = inhibition",[5],inconclusive: -3.76%
same,Potency,[6],inactive
same,Potency,[7],inactive
same,Potency,[8],"inconclusive: 39.9 µM [inhibitor, partial curve, poor fit]"
Cc1ccccc1N=C(N)N=C(N)N,Potency,[9],"inconclusive: 5.45 µM [activator, full curve, poor fit]"
same,"activity change, negative = inhibition",[1],inconclusive: 18.2%
same,Potency,[10],"inconclusive: 68.6 µM [rising, single point]"
same,"ratio activity, negative = inhibition",[4],inconclusive: 2.12%
same,Potency,[11],inactive
same,Potency,[5],"inconclusive: 0.776 µM [fluorescent, partial curve]"
same,activation,[6],inconclusive: -0.115% [phenotype inactive]
same,Potency,[12],inactive
CCCCCCCC1CCCC1=O (stereo not given),Potency,[9],inconclusive: 6.11 µM [inhibitor]
same,activation,[6],inconclusive: -9.53% [phenotype inactive]
same,Potency,[7],inconclusive: 56.4 µM [inhibitor]
same,Potency,[8],"inconclusive: 100 µM [inhibitor, partial curve, poor fit]"
O=CN1CCOCC1,Potency,[13],inactive
same,"ratio activity, negative = MMP loss",[9],inconclusive: -0.247%
same,Potency,[3],inactive
same,Potency,[11],inactive
same,Potency,[6],inactive
CCO[Si](CCCS)(OCC)OCC,"ratio activity, negative = MMP loss",[9],inconclusive: -13.3%
same,Potency,[14],"inconclusive: 19.3 µM [cytotoxic, partial curve, poor fit]"
same,"ratio activity, negative = inhibition",[4],inconclusive: 7.55%
same,Potency,[11],inactive
same,activation,[6],inconclusive: -8.63% [phenotype inactive]
same,Potency,[12],"inconclusive: 61.1 µM [inhibitor, single point]"
same,Potency,[7],"inconclusive: 39.9 µM [inhibitor, partial curve]"
same,Potency,[8],"inconclusive: 31.7 µM [inhibitor, full curve, poor fit]"
CC(O)C(CO)C(C)O (stereo not given),Potency,[9],inactive
same,Potency,[4],inactive
same,Potency,[11],inactive
same,Potency,[6],inactive
CCCCOCCOC(=O)COc1cc(Cl)c(Cl)cc1Cl,Potency,[9],"inconclusive: 68.6 µM [rising, partial curve, poor fit]"
same,Potency,[11],inactive
same,activation,[6],inconclusive: -2.33% [phenotype inactive]
same,Potency,[7],inconclusive: 63.3 µM [inhibitor]
same,Potency,[8],"inconclusive: 56.4 µM [inhibitor, partial curve]"
Cc1cccc(N)n1,Potency,[9],inactive
same,"activity change, negative = inhibition",[5],inconclusive: 26.6% [at 78.8 µM]
same,Potency,[6],inactive
same,Potency,[15],inactive
CC(C)OCC1CO1 (stereo not given),Potency,[13],inactive
same,"ratio activity, negative = MMP loss",[9],inconclusive: 11.6%
same,Potency,[10],inactive
same,Potency,[14],inactive
same,Potency,[4],inactive
same,Potency,[6],"inconclusive: 76.5 µM [inhibitor, single point]"
same,Potency,[12],"inconclusive: 76.5 µM [inhibitor, single point]"
same,"activity change, negative = inhibition",[16],inconclusive: -35%
same,Potency,[17],"inconclusive: 30.5 µM [cytotoxic, full curve, poor fit]"
same,Potency,[18],inactive
C/C(=N\O)c1ccc(OCC(=O)N2CCCCC2)cc1,Potency,[13],"inconclusive: 26.6 µM [fluorescent, partial curve, poor fit]"
same,Potency,[10],"inconclusive: 33.5 µM [cytotoxic, single point]"
same,Potency,[3],active: 4.22 µM
same,"ratio activity, negative = inhibition",[4],inconclusive: 13.7%
same,Potency,[6],active: 3.76 µM
same,Potency,[7],"inconclusive: 34.7 µM [inhibitor, partial curve, poor fit]"
same,Potency,[19],"inconclusive: 43.6 µM [inhibitor, single point]"
same,Potency,[8],"inconclusive: 43.6 µM [inhibitor, single point]"
same,Potency,[18],"inconclusive: 40.7 µM [inhibitor, partial curve, poor fit]"
